Results: ChEMBL document CHEMBL5308541, “MAIP: An Open-Source Tool to Enrich High-Throughput Screening Output and Identify Novel, Druglike Molecules with Antimalarial Activity” (ACS Med Chem Lett, 2023)
The campaign covered roughly 150,000 compounds. About 540 (0.36%) showed an effect of 50% or more. The list shows a part of the results.

These compounds were tested on Plasmodium falciparum (assay: Primary screen in NF54 nanoGlo assay, in single point, at 2uM, 72h; a lower Z score goes with more inhibition). Conditions: timepoint 72 hour.
Assay type: functional, Erythrocyte

Row | Structure (SMILES) | % Inhibition | Z score
1 | CC(C)(C)OC(=O)N1CCC(Nc2nc(-c3cnccn3)cs2)CC1 | -1% | 0.19
2 | c1ccc(C2CC(Nc3ccc(-c4cnco4)cc3)CCN2)cc1 (stereo unspecified) | -8% | 1.63
3 | COc1ccc2[nH]cc(CCNc3ncncc3-c3nc(-c4ccccc4F)no3)c2c1 | 4% | -0.77
4 | O=C1C[C@H](NCc2ccc3c[nH]nc3c2)CN1CCN1CCOCC1 | 0% | 0.02
5 | CN1CCC(Cc2nc(-c3n[nH]c4ccccc34)n(C)n2)CC1 | -4% | 0.7
6 | COCC[C@H](C)NCC1(c2ccc(Cl)cc2)CC1 | -4% | 0.62
7 | Nc1nc2c(s1)CN(c1ccc(-c3ccc(F)cc3)nn1)CC2 | 1% | -0.12
8 | Cc1noc(-c2cccnc2NCC2CCN(c3ccncc3)CC2)n1 | -2% | 0.24
9 | O[C@H]1CCCC[C@@H]1Nc1ccc(-c2cccc(OCc3ccccc3)c2)cn1 | -12% | 2.05
10 | Cc1cc(NC[C@H]2CCCCN2C)nc2cc(F)ccc12 | -12% | 2.15
11 | COC[C@H](C)NC1CCN(c2ccc(-c3cc4ccccc4[nH]3)cc2)CC1 | -1% | 0.2
12 | C[C@H]1CCCCN1CCCNc1ccccn1 | 8% | -1.43
13 | O=C(NCc1nc2ccccc2[nH]1)c1csc(-c2cc3ccccc3[nH]2)n1 | 10% | -1.52
14 | CN1CCC(N2CC[C@H](N(C)C(=O)c3cnc4[nH]nnc4c3)C2)CC1 | 1% | -0.13
15 | CN(C)c1nc(N2CCN(c3ncnc4ccccc34)CC2)ncc1F | -10% | 1.79
16 | CCOc1cccc(CN2CC[C@H](Oc3ccccc3-c3nc(C4CCOCC4)no3)C2)c1 | -9% | 1.51
17 | CC1(C)CN(CCNC(=O)C[C@]2(O)CCCNC2)CCO1 | 1% | -0.12
18 | OC1CN(c2nc(NCCCNc3cccnc3)cc([C@H]3CCOC3)n2)C1 | -12% | 2.31
19 | C[C@@H](c1ccccc1O)n1cnc(-c2ccccc2)c1-c1cccc(O)c1 | -10% | 2.11
20 | COCCc1noc(-c2ccc(N3CCc4c([nH]c5ccccc45)C3)nc2)n1 | -16% | 2.42
21 | CCc1nccn1CC(=O)N1CCC[C@](C)(c2ccccc2)C1 | -3% | 0.49
22 | Cc1nnc(COc2cccc3c2CCCC3=O)s1 | -5% | 0.75
23 | C[C@H](NCc1c[nH]c2nccnc12)c1cc(F)ccc1N1CCC(O)CC1 | 3% | -0.39
